Source: PubChem BioAssay AID463173 (ICCB-Longwood Screening Facility, Harvard Medical School, 2010)
Out of some 52,000 compounds screened, about 4,300 (8.3%) were called active. Rule as the data show it: active = survival mostly below about 52% (no sharp cut-off); inactive = mostly above about 56%. The list shows a part of the results.

What follows are molecules tested on DeltatarO mutant (assay: S. aureus survival, RN4220 and DeltatarO strains – OD600, teichoic acid synthesis inhibitors, primary screen (AID 463173)). Settings: S. aureus RN4220 wild type/DeltatarO growth, OD600, 18 h, stronger effect = lower value, screened at 18.75 µg/mL (by protocol).
In the case of `CCOc1ccc(-c2nc(SCC(=O)NC3CCCC3)c(-c3ccccc3)[nH]2)cc1OC`, the survival is reported as inactive: 55%.
In the case of `O=C(NC1CCN(C(=S)NCc2ccco2)CC1)NC12CC3CC(CC(C3)C1)C2`, the survival is reported as inactive: 93%.
For `COc1ccc(CNCCC(c2ccccc2)c2ccc3c(c2)OCO3)cc1` (stereo not given), the survival was active: -14%.
With `CCNC(=S)N1C2CCCC1CC(NC(=O)C1CC1)C2` (stereo not given) the survival was inactive: 61%.
With `CCCC1=Nc2cc(C(=O)NCCc3ccccc3)ccc2Sc2ccc(C)cc21` the survival was inactive: 87%.
For `Cc1cc(Br)ccc1NC(=O)c1ccc(NS(=O)(=O)c2c(C)noc2C)cc1`, the survival was inactive: 59%.
With `Cc1cc(C)cc(Oc2c(F)c(F)c(F)c(F)c2F)c1` the survival was inactive: 73%.
`Nc1c(-c2nc(-c3ccc4c(c3)OCO4)cs2)c2ccccn2c1C(=O)c1ccccc1` was tested, and the survival was inactive: 69%.
`COc1cc(C(=O)N2CCc3c([nH]c4ccccc34)C2c2ccc(C)cc2)cc(OC)c1OC` (stereo not given) was tested, and the survival was inactive: 99%.
With `O=C(CSc1nc(-c2cccs2)nc2cc(=O)[nH]n12)Nc1ccccc1F` the survival was active: 47%.
`CCCOc1ccc(C(=O)Nc2ccc(Cl)c(-c3nc4ncccc4o3)c2)cc1` was tested, and the survival was inactive: 56%.
`CCOc1ccc(CCNC(=O)CSc2cc(=O)n(C)c3cc(Cl)ccc23)cc1OCC` was tested, and the survival was inactive: 91%.
For `CC(C)=CC(=O)Nc1nnc(Cc2ccccc2)s1`, the survival was inactive: 55%.
For `Cc1c(-c2nsc(NC(=O)c3cccc(Cl)c3)n2)nnn1-c1ccccc1C(F)(F)F`, the survival was active: -4%.
In the case of `Nc1nnc2c(Nc3ccccc3)nc3nonc3n12`, the survival is reported as inactive: 86%.
`CSc1ccc(CCNC(=O)CN2C(=O)c3cccnc3Oc3ccc(Cl)cc32)cc1` was tested, and the survival was inactive: 70%.
For `CCOc1ccc(CCNC(=O)CCc2c(C)nc3cc(-c4ccccc4OC)nn3c2C)cc1`, the survival was active: 50%.
For `CCN(CC)c1ccc(NC(=O)C2CCN(S(=O)(=O)c3c(C)noc3/C=C/c3ccccc3F)CC2)c(C)c1`, the survival was inactive: 90%.
With `CC(C)(C)C1CCc2c(sc3nc(-c4cc5cc(Cl)ccc5oc4=O)[nH]c(=O)c23)C1` (stereo not given) the survival was inactive: 83%.
`Cc1cc(=O)[nH]c2c(C)c(Cl)ccc12` was tested, and the survival was inactive: 93%.
In the case of `Cc1ccc(NC(=O)Cn2nc(C(F)(F)F)c3c2CCCC3)cc1`, the survival is reported as inactive: 120%.
For `Cc1ccc(S(=O)(=O)NCCc2nnc3ccc(SCC(=O)Nc4c(C)cc(C)cc4C)nn23)cc1`, the survival was inactive: 78%.
In the case of `CCn1c(CNC(=O)c2ccc(OC)cc2)nnc1SCC(=O)Nc1cccc(C)c1`, the survival is reported as inactive: 125%.
With `Cc1ccc(S(=O)(=O)N2CCCc3cc(NC(=O)c4ccc(Cl)cc4)ccc32)cc1` the survival was inactive: 80%.
In the case of `CCOc1ccc(CCNC(=O)c2c3c(nc4ccccc24)C(=O)N(C2CCCCC2)C3)cc1`, the survival is reported as inactive: 72%.
For `COc1ccccc1C(=O)NC(=O)Nc1ccc(-c2cc(C(F)(F)F)nn2-c2ccccc2)cc1`, the survival was active: 30%.
In the case of `CCc1ccc(C(=O)c2cn(CC(=O)Nc3ccc4c(c3)OCO4)c3ccc(Cl)cc3c2=O)cc1`, the survival is reported as inactive: 72%.
In the case of `CCc1ccc(N(CC)C(=O)c2cn(C)c(=O)c3cc(OC)c(OC)cc23)cc1`, the survival is reported as inactive: 165%.
In the case of `CCOc1ccc2c(c1)NC(c1ccc(OCC)c(OCC)c1)=NC(c1ccc(F)cc1)=N2`, the survival is reported as inactive: 75%.
In the case of `CCCCn1c(=O)c2oc3ccccc3c2n(Cc2ccc(C)cc2)c1=O`, the survival is reported as inactive: 62%.
In the case of `CCCN(CCC)CN1C(=O)S/C(=C/c2ccc(N(CC)CC)cc2)C1=O`, the survival is reported as inactive: 68%.
`Cc1cc(SCC(=O)Nc2ccc(F)cc2F)nc(=O)[nH]1` was tested, and the survival was inactive: 115%.
In the case of `COc1ccc2ncc3c(-c4ccc(C)c(C)c4)nn(CC(=O)Nc4ccccc4)c3c2c1`, the survival is reported as inactive: 102%.
With `COC(=O)c1c(NC(=O)c2cc(=O)c3cc(C)cc(C)c3o2)sc2c1CCC2` the survival was inactive: 80%.
In the case of `CCOC(=O)c1ccc(NC(=O)c2nc(SCc3ccc(F)cc3)ncc2Cl)cc1`, the survival is reported as inactive: 103%.
`O=c1c(Cl)c(N2CCN(CCO)CC2)cnn1-c1ccccc1` was tested, and the survival was inactive: 71%.
With `COc1ccccc1NC(=O)c1cc2cc3ccc(OC)c(Cl)c3nc2s1` the survival was inactive: 92%.
For `O=C(NCCc1ccccc1Cl)c1cc2ccccn2n1`, the survival was inactive: 125%.
`Cc1ccc(CC(=O)NCc2nc(-c3ccccc3)no2)cc1` was tested, and the survival was inactive: 77%.
With `CCCN(CCC)C(=O)C1CCN(c2cc(C)nc3c(-c4ccc(Cl)cc4)c(C)nn23)CC1` the survival was inactive: 97%.
For `Cn1c(NCCCO)nc2c1c(=O)n(Cc1cccc(F)c1)c(=O)n2C`, the survival was inactive: 85%.
For `COc1ccc(C(=O)Nc2ccc(-c3nc4ccccc4s3)c(Cl)c2)cc1Cl`, the survival was inactive: 63%.
For `COc1cc(C(=O)Nc2cc(C)c(O)c(-c3nc4ccccc4s3)c2)cc(OC)c1OC`, the survival was inactive: 65%.
With `O=C(Cn1cc(S(=O)(=O)Cc2ccccc2F)c2ccccc21)Nc1ccc(F)c(Cl)c1` the survival was inactive: 78%.
For `COc1ccc(CNc2ncnc3c2c(-c2ccccc2)cn3-c2ccc(C)c(Cl)c2)cc1`, the survival was inactive: 83%.
`COc1cccc(C(=O)Nc2nc(-c3nnn(-c4cccc(Cl)c4C)c3C)ns2)c1` was tested, and the survival was active: -5%.
`COc1ccc2c(CNCc3ccco3)c(C(=O)O)n(Cc3cccc(F)c3)c2c1` was tested, and the survival was inactive: 64%.
`COc1ccc(NC(=O)Cn2c(=O)n(-c3ccc(OC)cc3)c(=O)c3sc4ccccc4c32)cc1` was tested, and the survival was inactive: 106%.
In the case of `Cc1ccc(C)c(Cn2c(SCC(=O)NCc3ccccc3)nc3ccccc32)c1`, the survival is reported as inactive: 73%.
`CCOC(=O)c1cccc(NC(=O)C2=C(C)C(=O)OC23CCCCC3)c1` was tested, and the survival was inactive: 89%.
In the case of `CCN(CC)N=Nc1ccc(S(=O)(=O)N2CCSC2C(=O)O)cc1` (stereo not given), the survival is reported as inactive: 103%.
For `Cn1c(NCCN)nc2c1c(=O)n(Cc1ccccc1)c(=O)n2C`, the survival was inactive: 50%.
For `Cc1cc2nc(-c3ccc(OCc4ccccc4F)cc3)cc(C(F)(F)F)n2n1`, the survival was active: 45%.
For `CCCc1nn2c(=O)cc(COC(=O)c3ccc4c(c3)OCO4)nc2s1`, the survival was inactive: 82%.
`Cc1ccc(C)c(NC(=O)c2oc(=O)c3ccccc3c2-c2ccccc2)c1` was tested, and the survival was inactive: 67%.
For `O=C1/C(=N\O)CCc2c1no[n+]2[O-]`, the survival was inactive: 80%.
In the case of `COc1ccccc1CCNC(=O)C1(c2cccs2)CCOCC1`, the survival is reported as inactive: 76%.
In the case of `CCc1cccc(NC(=O)CCn2nc(C)cc2C)c1`, the survival is reported as inactive: 80%.
For `COc1ccc(C2CC(=O)Nc3c2c(C)nn3-c2nc(C)cc(C)n2)c(OC)c1OC` (stereo not given), the survival was inactive: 66%.
With `CCC(=O)NCCc1sc2nc(-c3ccc(OC)cc3)nn2c1C` the survival was inactive: 91%.
With `COc1ccc(CCNC(=O)c2ccc3nc(CCc4ccccc4)oc3c2)cc1OC` the survival was active: 37%.
`COc1ccc(NC(=O)Cn2c(=O)oc3cc(S(=O)(=O)N4CCCC4)ccc32)cc1OC` was tested, and the survival was inactive: 81%.
For `Cc1cccc(CSc2nc3ccncc3n2CC(=O)N(C)C2CCCCC2)c1`, the survival was inactive: 91%.
With `CCC(C)(C)Nc1ncccc1C(=O)O` the survival was inactive: 111%.
In the case of `COc1ccc(NC(=O)Cn2cnc3c(nc4n3CCCCC4)c2=O)cc1Cl`, the survival is reported as inactive: 84%.
In the case of `Cc1cccc(N2CCN(C(=O)Cc3c(C(=O)O)c(C)cn3C)CC2C)c1` (stereo not given), the survival is reported as inactive: 100%.
`CN(Cc1ccccc1)C(=O)c1ccc(CSc2nc3cccnc3n2Cc2ccccc2)cc1` was tested, and the survival was inactive: 124%.
In the case of `COc1ccc(N2CCN(C(=O)C3CCCN(S(=O)(=O)c4ccc5c(c4)oc(=O)n5C)C3)CC2)cc1` (stereo not given), the survival is reported as inactive: 96%.
`COC(=O)c1cc2c(ccn2-c2ccc(F)cc2)n1CC1CCCCC1` was tested, and the survival was inactive: 88%.
`CCOC(=O)c1ccccc1NC(=O)c1sc2nc(-c3ccc(F)cc3)cn2c1C` was tested, and the survival was inactive: 67%.
For `COc1ccc(-c2nc3ccccc3o2)cc1NC(=O)c1cc(Br)ccc1OC`, the survival was active: 40%.
With `COc1ccc(C)cc1NC(=O)NCCn1nnc2cc(S(=O)(=O)N(C)C)ccc21` the survival was inactive: 89%.
In the case of `Cc1nnc(NC(=O)CSc2nc3c([nH]c4ccccc43)c(=O)n2-c2cccc(Cl)c2)s1`, the survival is reported as inactive: 79%.
In the case of `COc1ccc(CCNC(=O)c2cnc3sc(N4CCCCCC4)nn3c2=O)cc1`, the survival is reported as inactive: 65%.
For `Cc1ccc(C(=O)OCc2cc(=O)n3nc(CC(C)C)sc3n2)cc1`, the survival was inactive: 122%.
`Cc1ccc(N2C(=O)CSC23C(=O)N(CC(=O)NCCc2ccccc2)c2ccccc23)cc1` (stereo not given) was tested, and the survival was inactive: 80%.
With `CCC1CN(C(=O)N2CCC(C(=O)NCc3cccs3)CC2)c2ccccc2O1` (stereo not given) the survival was inactive: 78%.
For `N#CC1=C(N)Oc2n[nH]c(CSc3ccccc3)c2C1Cc1ccccc1` (stereo not given), the survival was inactive: 65%.
With `Cc1ccc(NC(=O)c2ccc(-c3ccccc3)s2)cc1` the survival was inactive: 82%.
`CC(=O)c1ccc(NC(=O)c2sc(-n3nc(C)c(Cc4ccc5c(c4)OCO5)c3C)nc2C)cc1` was tested, and the survival was inactive: 59%.
With `CCC1CCCCN1CCCNC(=O)c1ccc2c(c1)N(Cc1cccc(Cl)c1)C(=O)c1ccccc1S2(=O)=O` (stereo not given) the survival was inactive: 57%.
`O=C(Nc1ccc2oc(-c3ccc(Br)cc3)nc2c1)c1cc2ccccc2o1` was tested, and the survival was inactive: 55%.
In the case of `COc1cccc(CNCc2c(C(=O)O)n(Cc3ccc(C)cc3)c3cc(C)ccc23)c1OC`, the survival is reported as inactive: 95%.
With `COc1ccc(N2CCN(C(=O)c3noc4c3CCCCC4)CC2)cc1` the survival was inactive: 72%.
For `O=c1oc2c(CN3CCOCC3)c(O)ccc2cc1-c1ccccc1`, the survival was inactive: 89%.
For `COc1ccc(OCC(=O)N2CCN(C(=O)c3ccc(OC)c(OC)c3)CC2)cc1`, the survival was inactive: 150%.
In the case of `Cc1cccc(C)c1NC(=O)CCSCCc1ccccn1`, the survival is reported as inactive: 86%.
`COc1cn(CC(=O)Nc2ccc(C)cc2)c(CN2CCCCC2)cc1=O` was tested, and the survival was inactive: 90%.
For `O=C(CCNS(=O)(=O)c1ccc2c(c1)CCN2C(=O)C1CC1)Nc1ccc(Cl)cc1`, the survival was inactive: 76%.
With `CC(=O)N1CCc2cc(Br)cc(S(=O)(=O)CCC(=O)NCc3ccc(F)cc3)c21` the survival was inactive: 56%.
